# According to a collection of fitness landscapes (doi:10.1038/s41467-024-54723-y):
# Over roughly 18,000 sequences, “TetR repression strength (sort-seq, GFP reporter)” has its median near 0.23; the highest 2% begin near 0.68. The list shows a part of the results.
# Target: TetR (class B, Tn10) (UniProt P04483)
# Assay: TetR repression strength (sort-seq, GFP reporter) (relative to tetO2 = 1); higher = stronger repression
# Conditions: E. coli
# Procedure, shortened: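 Repression strength was calculated by subtracting the read-weighted mean bin from the top bin index plus one and dividing by the unaltered operator's value. The plasmid library was low-copy in E. coli SIG10-MAX, with eight randomized operator positions between a constitutive promoter and sfGFP and constitutive TetR. Cultures grew 5 h at 37 °C in LB containing 50 µg/mL chloramphenicol before 10^6 cells were sorted by FACS into 13 fluorescence bins, each sequenced on Illumina. Three independent transformations were averaged for members having ≥30 reads in all replicates and a CV ≤0.5.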
# UniProt P04483, sequence (P04483 whole entry): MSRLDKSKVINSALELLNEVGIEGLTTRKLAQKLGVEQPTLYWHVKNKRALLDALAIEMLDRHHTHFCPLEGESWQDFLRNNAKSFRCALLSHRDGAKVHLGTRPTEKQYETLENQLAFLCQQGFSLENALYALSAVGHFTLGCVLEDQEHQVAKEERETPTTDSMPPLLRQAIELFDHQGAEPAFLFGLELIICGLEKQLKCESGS
row,Sequence,TetR repression strength
1,TCCCGCCCAGTCGATGAGA,0.221
2,TCCCACAGAGTGCTTGAGA,0.408
3,TCCCCAGTAGTAGTGGAGA,0.246
4,TCCCGCAGAGTTCCAGAGA,0.262
5,TCCCTGCTAGTGGCTGAGA,0.136
6,TCCCGCTAAGTAGATGAGA,0.00942
7,TCCCGGCTAGTACGAGAGA,0.453
8,TCCCTTTGAGTGGTGGAGA,0.245
9,TCCCGGGTAGTAGCGGAGA,0.555
10,TCCCGGCAAGTTGAAGAGA,0.146
11,TCCCGCCGAGTCCTCGAGA,0.35
12,TCCCCGAGAGTGCGGGAGA,0.111
13,TCCCGGTTAGTCCCGGAGA,0.185
14,TCCCTGAAAGTGTGTGAGA,0.233
15,TCCCTGCCAGTTTGCGAGA,0.207
16,TCCCAAGGAGTGGAAGAGA,0.323
17,TCCCGATCAGTGTTAGAGA,0.556
18,TCCCCCTTAGTTGATGAGA,0.289
19,TCCCGTATAGTGCAGGAGA,0.238
20,TCCCCACGAGTGACGGAGA,0.118
21,TCCCCTGTAGTGACAGAGA,0.194
22,TCCCTCCAAGTGTTCGAGA,0.392
23,TCCCTGACAGTTATCGAGA,0.253
24,TCCCGACCAGTACTAGAGA,0.283
25,TCCCCGGGAGTCGGCGAGA,0.171
26,TCCCTGAAAGTGGTCGAGA,0.285

row,Sequence,TetR repression strength
1,TCCCACAGAGTAAGAGAGA,0.488
2,TCCCCTCCAGTCGATGAGA,0.44
3,TCCCGTCTAGTCTCTGAGA,0.295
4,TCCCGCTAAGTGATTGAGA,0.473
5,TCCCAGTCAGTTCAGGAGA,0.096
6,TCCCGTCGAGTGAACGAGA,0.242
7,TCCCGTCAAGTGCTTGAGA,0.848
8,TCCCTTGGAGTGATAGAGA,0.384
9,TCCCTTGCAGTAGTCGAGA,0.214
10,TCCCGAGCAGTCGCGGAGA,0.156
11,TCCCATGGAGTGCGTGAGA,0.262
12,TCCCTCACAGTGGACGAGA,0.155
13,TCCCAAACAGTGTGGGAGA,0.268
14,TCCCGTCCAGTCCCCGAGA,0.327
15,TCCCGGAAAGTGTAGGAGA,0.289
16,TCCCTATGAGTTGGAGAGA,0.241
17,TCCCTTCTAGTCTTTGAGA,0.693
18,TCCCATGAAGTCATGGAGA,0.25
19,TCCCATAGAGTTGTGGAGA,0.184
20,TCCCGTGCAGTCCTGGAGA,0.092
21,TCCCACGGAGTAAACGAGA,0.288
22,TCCCAAGGAGTGGGGGAGA,0.345
23,TCCCATCTAGTGATCGAGA,0.412
24,TCCCCAGCAGTGGGTGAGA,0.118
25,TCCCTGCGAGTGGATGAGA,0.397
26,TCCCCGGTAGTCTAGGAGA,0.227

row,Sequence,TetR repression strength
1,TCCCTTTAAGTCGAAGAGA,0.123
2,TCCCTGCAAGTCAACGAGA,0.207
3,TCCCTATTAGTGCGAGAGA,0.198
4,TCCCGATCAGTTCTGGAGA,0.36
5,TCCCCGGGAGTCTCTGAGA,0.0671
6,TCCCATGGAGTAGCAGAGA,0.386
7,TCCCAGTAAGTCGCAGAGA,0.404
8,TCCCTAATAGTCCTCGAGA,0.385
9,TCCCAGGGAGTCTACGAGA,0.095
10,TCCCGCTAAGTACGAGAGA,0.156
11,TCCCAGGAAGTTCGGGAGA,0.45
12,TCCCGGGTAGTTCTAGAGA,0.672
13,TCCCTCTTAGTGTTGGAGA,0.224
14,TCCCTTCAAGTAACGGAGA,0.352
15,TCCCTCACAGTTGGCGAGA,0.207
16,TCCCTGTGAGTCGAGGAGA,0.141
17,TCCCAAGAAGTAGTTGAGA,0.207
18,TCCCGACCAGTGTACGAGA,0.178
19,TCCCCTCAAGTCAAGGAGA,0.305
20,TCCCATCCAGTAAACGAGA,0.547
21,TCCCTGGCAGTGATTGAGA,0.47
22,TCCCAGTCAGTAACCGAGA,0.411
23,TCCCTGCCAGTACACGAGA,0.217
24,TCCCATCTAGTAGTGGAGA,0.0175
25,TCCCCTGGAGTATTGGAGA,0.289
26,TCCCTATTAGTGATAGAGA,0.878

row,Sequence,TetR repression strength
1,TCCCCATGAGTGCTTGAGA,0.341
2,TCCCCATGAGTGGTAGAGA,0.211
3,TCCCAAACAGTTTAAGAGA,0.619
4,TCCCCGTTAGTCAGTGAGA,0.186
5,TCCCCTCGAGTGAGGGAGA,0.26
6,TCCCCCGGAGTTGTGGAGA,0.149
7,TCCCCTTGAGTAGGAGAGA,0.415
8,TCCCATAGAGTGTTAGAGA,0.228
9,TCCCACTTAGTGTAAGAGA,0.351
10,TCCCAACTAGTCGAAGAGA,0.267
11,TCCCATTAAGTGGGTGAGA,0.178
12,TCCCGATGAGTTTCAGAGA,0.207
13,TCCCGCCAAGTACGAGAGA,0.207
14,TCCCGTCGAGTGGGAGAGA,0.494
15,TCCCTGACAGTGTGGGAGA,0.22
16,TCCCCGGTAGTCGTGGAGA,0.207
17,TCCCAGGGAGTACGCGAGA,0.352
18,TCCCGGCGAGTACAAGAGA,0.358
19,TCCCTAGGAGTGCTGGAGA,0.382
20,TCCCTCTTAGTAGGGGAGA,0.142
21,TCCCTACTAGTGAAGGAGA,0.242
22,TCCCTGGGAGTTGAGGAGA,0.18
23,TCCCACCAAGTAGGAGAGA,0.285
24,TCCCTTAAAGTTTAGGAGA,0.12
25,TCCCGACCAGTGGCGGAGA,0.195
26,TCCCGCTCAGTCGTTGAGA,0.48

row,Sequence,TetR repression strength
1,TCCCTAGCAGTGGGCGAGA,0.213
2,TCCCTCCGAGTGGATGAGA,0.142
3,TCCCGGCCAGTGCCGGAGA,0.246
4,TCCCCTTTAGTGGGCGAGA,0.115
5,TCCCGCATAGTTGAGGAGA,0.199
6,TCCCCACCAGTATCAGAGA,0.697
7,TCCCGGAGAGTTGTGGAGA,0.42
8,TCCCTGCAAGTGCCGGAGA,0.0686
9,TCCCTGACAGTGAGAGAGA,0.216
10,TCCCGTAGAGTCCGCGAGA,0.173
11,TCCCCGTAAGTTAACGAGA,0.379
12,TCCCATAGAGTCCAGGAGA,0.232
13,TCCCTGTTAGTGACGGAGA,0.268
14,TCCCCAACAGTTTCAGAGA,0.338
15,TCCCAACCAGTCTCAGAGA,0.431
16,TCCCTCGGAGTGGCGGAGA,0.398
17,TCCCGACGAGTTTTAGAGA,0.281
18,TCCCGGCTAGTAAGAGAGA,0.0973
19,TCCCTTCTAGTCTGCGAGA,0.577
20,TCCCTGGGAGTGACTGAGA,0.286
21,TCCCTAAGAGTTTACGAGA,0.0764
22,TCCCTATGAGTCGCGGAGA,0.432
23,TCCCTTTCAGTCCATGAGA,0.41
24,TCCCGGATAGTTCCTGAGA,0.208
25,TCCCCTCTAGTTTTGGAGA,0.41
26,TCCCTCTCAGTGTTAGAGA,0.465

row,Sequence,TetR repression strength
1,TCCCCTTAAGTGACTGAGA,0.343
2,TCCCTGATAGTGTATGAGA,0.21
3,TCCCCCATAGTCCGAGAGA,0.427
4,TCCCCACGAGTCCTTGAGA,0.459
5,TCCCGATAAGTGGAAGAGA,0.327
6,TCCCTCGCAGTGAGGGAGA,0.579
7,TCCCATGGAGTGTTAGAGA,0.246
8,TCCCACGTAGTGGTGGAGA,0.158
9,TCCCACAGAGTAATGGAGA,0.108
10,TCCCATTGAGTCCCGGAGA,0.0115
11,TCCCCTTGAGTAGTAGAGA,0.196
12,TCCCTGGTAGTTTCAGAGA,0.213
13,TCCCTGGCAGTAATGGAGA,0.404
14,TCCCGCGGAGTCCTTGAGA,0.26
15,TCCCTCGGAGTCGTAGAGA,0.287
16,TCCCACAGAGTCAGGGAGA,0.271
17,TCCCCGCGAGTAGTAGAGA,0.314
18,TCCCGGTGAGTAGAGGAGA,0.407
19,TCCCCATAAGTTACGGAGA,0.131
20,TCCCGGAGAGTTATCGAGA,0.316
21,TCCCGAAAAGTGACGGAGA,0.109
22,TCCCGTTAAGTGTGAGAGA,0.179
23,TCCCGGTAAGTCCCTGAGA,0.413
24,TCCCCTTGAGTGGACGAGA,0.325
25,TCCCCGGTAGTACCCGAGA,0.0846
26,TCCCTGGGAGTAGTAGAGA,0.26

row,Sequence,TetR repression strength
1,TCCCGGGTAGTACACGAGA,0.445
2,TCCCTCAAAGTGTTGGAGA,0.237
3,TCCCCGACAGTTGGAGAGA,0.223
4,TCCCGTGGAGTCGTAGAGA,0.23
5,TCCCGTGAAGTACGGGAGA,0.43
6,TCCCGTTGAGTGATAGAGA,0.558
7,TCCCGCAGAGTTAATGAGA,0.239
8,TCCCGGGCAGTAAGAGAGA,0.22
9,TCCCGCGAAGTGTAAGAGA,0.138
10,TCCCTGTAAGTATGCGAGA,0.0714
11,TCCCATTTAGTTGGTGAGA,0.251
12,TCCCAGGTAGTAACAGAGA,0.376
13,TCCCGGGTAGTTGACGAGA,0.0605
14,TCCCATAAAGTTCTCGAGA,0.361
15,TCCCCTAGAGTAGACGAGA,0.238
16,TCCCTGCAAGTATGGGAGA,0.328
17,TCCCGATGAGTGGTGGAGA,0.133
18,TCCCTACGAGTTGTGGAGA,0.0924
19,TCCCACTCAGTGTTGGAGA,0.0488
20,TCCCCAGGAGTTACCGAGA,0.0401
21,TCCCTTCTAGTTTATGAGA,0.524
22,TCCCATGCAGTGAGTGAGA,0.0957
23,TCCCGAACAGTCGAGGAGA,0.185
24,TCCCTATTAGTTTGTGAGA,0.264
25,TCCCGGTAAGTGGAAGAGA,0.376
26,TCCCGCGAAGTATATGAGA,0.357

row,Sequence,TetR repression strength
1,TCCCCATTAGTCGCAGAGA,0.366
2,TCCCGTGAAGTATAGGAGA,0.142
3,TCCCGGGAAGTCGACGAGA,0.0734
4,TCCCGAAGAGTTATTGAGA,0.259
5,TCCCCATTAGTCTCCGAGA,0.513
6,TCCCATTTAGTAGGTGAGA,0.107
7,TCCCGCTAAGTTATCGAGA,0.0361
8,TCCCTTATAGTGGCAGAGA,0.0985
9,TCCCAGATAGTTTGAGAGA,0.28
10,TCCCTCACAGTCTCCGAGA,0.355
11,TCCCCCGAAGTATTCGAGA,0.437
12,TCCCGAACAGTTAACGAGA,0.046
13,TCCCGTTGAGTACGTGAGA,0.314
14,TCCCAGGTAGTTGGTGAGA,0.168
15,TCCCTTTGAGTGTAAGAGA,0.198
16,TCCCTTTGAGTTCTAGAGA,0.123
17,TCCCCTTTAGTTAGAGAGA,0.175
18,TCCCAGTGAGTGAGGGAGA,0.138
19,TCCCATTGAGTATATGAGA,0.292
20,TCCCTTCGAGTGGAAGAGA,0.264
21,TCCCTGCAAGTTGGGGAGA,0.181
22,TCCCGTAAAGTGATAGAGA,0.438
